PubChem BioAssay AID504832 (National Center for Advancing Translational Sciences (NCATS), 2011)
Hit rate of the full screen: of about 310,000 compounds, about 18,000 (5.8%) were called active. Inconclusive means that the source gave no clear call. Such entries were picked first, then a sample of the others. Calls follow the shape of the dose curve; as a rule, active = well fitted inhibition curve with a large enough effect; inconclusive = small, poorly fitted or top-dose-only effect, or another doubt; inactive = no such curve, though single readings can be large or run the other way. Potencies of inconclusive entries are left out as doubtful fits.
Potency is read from the fitted curve at half-maximal effect; tags tell the direction and shape of the fitted curve.

Experiment: Primary qHTS for delayed death inhibitors of the malarial parasite plastid, 48 hour incubation
Conditions: P. falciparum luciferase growth in erythrocytes; series mostly up to 28.7 µM
Summary of the method: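 Growth was read as firefly luciferase luminescence after a 48 h, 37 C, 5% CO2 exposure of compounds to reporter-bearing P. falciparum cultures (0.1% parasitemia, 2% hematocrit final) in Albumax-supplemented RPMI 1640.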
In the case of CCNS(=O)(=O)c1ccc(CCC(=O)Nc2ccc(C(=O)OC)cc2)cc1, the Potency was inconclusive [inhibitor, single point].
With CCOC(=O)C1CCCN(S(=O)(=O)c2ccc(-c3cc(C)no3)s2)C1 (stereo not given) the Potency was inconclusive [inhibitor, single point].
For Cc1cc(=O)c(C(=O)Nc2cccc(C(=O)NC3CC3)c2)nn1-c1ccccc1Cl, the Potency was inconclusive [inhibitor, partial curve, poor fit].
For COc1ccc(-c2onc(C)c2C)cc1S(=O)(=O)NCCc1ccco1, the Potency was inconclusive [inhibitor, single point].
For COc1ccc(-c2cnc(SCC(=O)Nc3nc(C(C)(C)C)cs3)n2Cc2ccco2)cc1, the Potency was active: 13.1 µM.
In the case of COC1C(OC(=O)c2ccc(C)[nH]2)C(O)C(Oc2ccc3c(O)c(NC(=O)c4ccc(O)c(CC=C(C)C)c4)c(=O)oc3c2Cl)OC1(C)C (stereo not given), the Potency was active: 5.86 µM.
For CCNc1nc(Cl)nc(N(NC(C)=O)C(C)C)n1, the Potency was inconclusive [inhibitor, partial curve, poor fit].
For O=C(CNC(=O)c1ccc(Br)o1)Nc1cccc(S(=O)(=O)N2CCOCC2)c1, the Potency was inconclusive [inhibitor, partial curve, poor fit].
With CCOc1ccc(N2C(=O)CC(N(CCc3ccc(S(N)(=O)=O)cc3)C(C)=O)C2=O)cc1 (stereo not given) the Potency was active: 3.7 µM.
With Cc1cccnc1CN1CCN(Cc2nc(C(c3ccccc3)c3ccccc3)no2)CC1 the Potency was inconclusive [inhibitor, full curve].
With Cc1nc(NC(=O)c2ccc(Cl)cc2)nc2cc3c(cc12)OCO3 the Potency was “inactive”.
With CC(O)C(=O)N/N=C/c1cccc2ccccc12 (stereo not given) the Potency was inconclusive [inhibitor, single point].
With CCn1cc(C=C2C(=O)N(C)C(=O)N(C)C2=O)c2ccccc21 the Potency was “inactive”.
In the case of O=C(c1cccc([N+](=O)[O-])c1)N1CCN(S(=O)(=O)/C=C/c2ccccc2)CC1, the Potency was inconclusive [inhibitor, single point].
For COc1cc(NC(=O)CN2C(=O)COc3ccc(S(=O)(=O)N4CCOCC4)cc32)cc(OC)c1, the Potency was “inactive”.
With O=C1CCC(C(=O)Nc2cccc(Oc3ccccc3)c2)=NN1 the Potency was “inactive”.
For Cc1ccsc1C(=O)OCC(=O)N(C)c1c(N)n(Cc2ccccc2)c(=O)[nH]c1=O, the Potency was “inactive”.
For O=C(CCN1C(=O)C2C3C=CC(C3)C2C1=O)Nc1ccc2ncccc2c1 (stereo not given), the Potency was “inactive”.
In the case of CSc1nc(NCc2ccccc2)c2c3c(sc2n1)CN(C)CC3, the Potency was active: 13.1 µM.
For Cc1ccc(-c2noc(C3CCCN(C(=O)c4ccc(C(C)(C)C)cc4)C3)n2)o1 (stereo not given), the Potency was inconclusive [inhibitor, single point].
In the case of COc1ccc(-n2c(C)nc3c(cnn3-c3ccc(C)cc3)c2=O)cc1, the Potency was inconclusive [inhibitor, partial curve, poor fit].
With O=C(OCCN1CCCCC1)c1cccc(Cl)c1 the Potency was “inactive”.
In the case of Cn1c(NC2CCCCC2)c(N=O)c(=O)n(C)c1=O, the Potency was “inactive”.
In the case of COc1cccc(C2c3[nH]c4ccccc4c3CCN2Cc2ncc[nH]2)c1 (stereo not given), the Potency was inconclusive [inhibitor, single point].
With COCC1CCCCN1C(=O)c1ccc2oc(CCCc3ccccc3)nc2c1 (stereo not given) the Potency was inconclusive [inhibitor, partial curve].
For CC(NC(=O)c1cccs1)c1nnc(SCc2ccc(Cl)cc2Cl)n1C (stereo not given), the Potency was inconclusive [inhibitor, single point].
With O=C(COC(=O)c1cc([N+](=O)[O-])ccc1N1CCOCC1)c1ccc(F)cc1 the Potency was inconclusive [inhibitor, single point].
For COc1ccc(S(=O)(=O)N2CCN(C(=O)c3ccco3)CC2)cc1C(C)(C)C, the Potency was inconclusive [inhibitor, single point].
With CC(=O)Nc1ccc(NC(=O)c2ccc(C3SCC(=O)N3CCc3ccccc3)cc2)cc1 (stereo not given) the Potency was “inactive”.
In the case of CSc1ncccc1C(=O)N1CCCC(CCC(=O)NCc2ccc(F)c(F)c2)C1 (stereo not given), the Potency was inconclusive [inhibitor, partial curve, poor fit].
With N#Cc1cc(-c2ccccc2)oc1/N=C/c1ccccc1O the Potency was inconclusive [inhibitor, partial curve].
For O=C(COc1ccccc1Br)Nc1ccc(S(=O)(=O)N2CCCC2)cc1, the Potency was active: 5.86 µM.
With O=C(COC(=O)c1ccc(S(=O)(=O)Nc2ccccc2)cc1)NCCC1=CCCCC1 the Potency was “inactive”.
For Cc1cc(OCC(=O)NC(Cc2ccc(Cl)cc2)C(=O)O)c2c3c(c(=O)oc2c1)CCC3 (stereo not given), the Potency was inconclusive [inhibitor, single point].
In the case of CCOC(=O)C1=C(c2ccccc2)NC(=S)NC1c1ccc(Cl)c([N+](=O)[O-])c1 (stereo not given), the Potency was inconclusive [inhibitor, single point].
In the case of CO/N=C(\C)c1ncc(C(F)(F)F)cc1N1CCOCC1, the Potency was “inactive”.
For COc1ccc(OC)c(N/C=C/C(=C(C#N)C#N)N(C)C)c1, the Potency was inconclusive [inhibitor, single point].
In the case of CC(=O)Nc1ccc(OC(=O)N2CCCC2)cc1, the Potency was “inactive”.
For CCC(C)(C)NC(=O)CCCSc1nc2ccccc2[nH]1, the Potency was “inactive”.
With COc1ccc(CCNC(=O)c2ccc(NS(=O)(=O)c3c(C)noc3C)cc2)cc1OC the Potency was inconclusive [inhibitor, partial curve].
With Cc1ccccc1C(=O)Nc1ccc2c(c1)OCCO2 the Potency was “inactive”.
In the case of O=C(C1CC=CCC1)N1CCC(CO)(Cc2ccc(Cl)cc2)CC1 (stereo not given), the Potency was inconclusive [inhibitor, single point].
For COCCn1cc(C(=O)NCCCN2CCC(C)CC2)c2c3ccccc3n(C)c2c1=O, the Potency was inconclusive [inhibitor, single point].
In the case of Cc1cc(C)n(-c2nc(NC(C)C)nc(NC(C)C)n2)n1, the Potency was active: 3.7 µM.
For Cc1cc(NC(=O)COc2coc(CN3CCN(c4ccccc4F)CC3)cc2=O)no1, the Potency was inconclusive [inhibitor, single point].
In the case of Cc1cc(NC(=O)CCCC(=O)N(c2ccccc2)C(C(=O)NC2CCCCC2)c2cccs2)no1 (stereo not given), the Potency was inconclusive [inhibitor, partial curve].
With CN(C)C(CNC(=O)c1cc(S(=O)(=O)N(C)c2ccccc2)ccc1Cl)c1cccs1 (stereo not given) the Potency was inconclusive [inhibitor, partial curve, poor fit].
In the case of O=[N+]([O-])c1ccc(S(=O)(=O)N2CCN(C3CCN(Cc4ccccc4)CC3)CC2)cc1, the Potency was inconclusive [inhibitor, single point].
With O=c1c2ccccc2nc(/C=C/c2ccc(O)cc2)n1-c1cccc(O)c1 the Potency was inconclusive [inhibitor, partial curve].
In the case of CC(=O)Nc1nc(COc2ccccc2)cs1, the Potency was “inactive”.
With CCOc1ccc(C(C)=O)cc1CSc1nnc(-c2ccncc2)n1CCOC the Potency was inconclusive [inhibitor, single point].
With COC(=O)C1=C(c2ccc(C(C)=O)cc2)C[C@@H]2CC[C@H]1N2C(=O)NCCOc1ccccc1Cl the Potency was inconclusive [inhibitor, partial curve, poor fit].
With CCCN(C1CCS(=O)(=O)C1)S(=O)(=O)c1ccc(F)cc1 (stereo not given) the Potency was “inactive”.
With CCOc1ccc(C2c3cc(OC)c(OC)cc3CC(=O)N2c2ccc(OC)cc2)cc1 (stereo not given) the Potency was inconclusive [inhibitor, single point].
In the case of CN(C(=O)CSc1nnc(-c2cccnc2)n1-c1ccccc1F)C1CCS(=O)(=O)C1 (stereo not given), the Potency was inconclusive [inhibitor, partial curve, poor fit].
For CC(C)N(CCCNC(=O)c1ccc(CS(=O)(=O)c2c(Cl)cccc2Cl)o1)Cc1ccccc1, the Potency was inconclusive [inhibitor, single point].
For COCCNC(=S)N/N=C(\C)CCc1ccc2c(c1)OCO2, the Potency was inconclusive [inhibitor, single point].
For CNC(=O)c1ccc(NC(=O)c2cccc(C(F)(F)F)c2)cc1, the Potency was “inactive”.
For CSc1ncccc1C(=O)OCc1nc2ccsc2c(=O)[nH]1, the Potency was inconclusive [inhibitor, single point].
In the case of CCn1c(SCC(=O)NNC(=O)c2ccc(OC)cc2)nnc1C(C)C, the Potency was “inactive”.
For C[C@H](NC(=O)c1nc[nH]c1C(=O)N1CCc2ccccc2C1)c1ccccc1, the Potency was inconclusive [inhibitor, partial curve, poor fit].
With COc1ccc(-c2cnnc(N/N=C/C(C)=C/c3ccccc3)n2)cc1 the Potency was “inactive”.
With COc1cc(OC)cc(C(=O)Nc2ccc3c(c2)CCCN3C(=O)c2cccs2)c1 the Potency was inconclusive [inhibitor, partial curve].
In the case of O=c1nc(-c2ccccc2)c2cc(Br)ccc2[nH]1, the Potency was “inactive”.
For COc1ccc(C(C)=O)cc1CSc1nnc(Nc2ccccc2)s1, the Potency was inconclusive [inhibitor, partial curve, poor fit].
In the case of COc1ccc(-n2cc(-c3ccccc3)[nH]c2=S)c(OC)c1, the Potency was inconclusive [inhibitor, single point].
With CC1SC(=NC(=O)C(C)N2C(=O)c3ccccc3C2=O)NC1=O (stereo not given) the Potency was “inactive”.
With CN(C)CCc1c[nH]c2ccc(CC3COC(=O)N3)cc12 (stereo not given) the Potency was “inactive”.
For O=S(=O)(Nc1ccc2c(c1)OCO2)c1cccs1, the Potency was “inactive”.
With Cc1ccc2c(c1)c1c3n2CCN=C3CCC1 the Potency was inconclusive [inhibitor, single point].
